Results reported in the supplement of paper PMC12632987.
Whole data set: some 2,300 sequences, median “median log2 fold change of GCK-ALFA target abundance (FLAG IP / Myc IP barcode read proportion)” near 0.095, cut for the lowest 2% near -0.47. Some of the results follow.

B1: LC3A_3_1839 (protein)
chain: LEEEVERALKKLKEAGHSEEALEAVRETAEALKEKGYEEALREFIRLMEEMVDLPSELVKELAEEVLELVEEEDLSEEELTERIRELARLFRNESEIEEL
B2: LC3A_28_844 (protein)
chain: SKTEKDIKEALERAKRAAEEGKSEVITIKVYKGDTEEEINKIIETLEEIAEILKDLPNQAILIDFEEKIDEEHQNKIIDKAEEIEKKYPNITVIIALPEE
B3: LC3A_free_39_2181 (protein)
chain: SEEELEETKEEILELAAEEGEEAREVAEELLELVEGNLELAETILEGLKEIREAGGDVLAALQDLLALAKEMKAAGKSWEELLKAIEETLQDHLNLIPLD
B4: LC3A_45_2001 (protein)
chain: MWEITVDLLGPREKVEKAVELILKKVKEFSKKTGIKIEVNEEKAKASFEASKDEEEVYVEIEIKIDGDKEDADALVKELDKVLEEVGPGLSSIISVEEIE
B5: LC3A_28_679 (protein)
chain: SALEKEIEEALKKAKEAAKKGEPTVITIKVPGDATQEEIDKFIKALKEIAEILKDVKGAAIVIDLSSKLSQEHRDKIIDAAEEINEKYPNVTVIIALEEK
B6: LC3A_free_39_2249 (protein)
chain: SEEELEEALRRARELAETLPPEEREAFEELLELVKDNPEAVRLVTEGVERLRAEGGDVLAFLKEAKKLVEEMKKAGKSEEEIVEELKELVEDHLNLIPLD
B7: LC3A_17_585 (protein)
chain: SEEIKKEIEKLLEELKKLVKKAKEYGIPEAKEIEKLLKEAEKALKEGKLKEAAELLAKAADLLADAFDEIEEEKGDEASLLSMEASGLELEAIRLLLKLE
B8: LC3A_17_532 (protein)
chain: SEELREEVERLLKELEEVGEEAIKMIPEYKEKIEKMVKEAREKLEAGDLRGAVEKIEEAAREIADLLDETEHEDEIKKENLIMEANGIALEAIGIGLKLE
B9: LC3A_3_1689 (protein)
chain: MEELVEEVLKEAEENGLSEEALEALKRLLEALKERGYLEAIKTVLEELKKLKDVSSEKIKEMFEEILELVENEDLSEEEVVKKIKEEATVLLNDNEIIEL
B10: LC3A_28_1086 (protein)
chain: SELEANLEAALAEAREAAAKGEEVVITITVKDTATEEDLERALKTMEEIAEITKDLPRTTIIVDLDGEKQQEKADIFGKHADELEKKYPHLTVIIALDEE
B11: LC3A_3_1619 (protein)
chain: LEERVEEALKELKEAGASEEVLKAFKELAEELLEKGYYEALETLIEEMREIKDLPNEIILDALEEVLEVVKTEDLNEEELIERIKEIFRTARNESEIIEL
B12: LC3A_28_795 (protein)
chain: AEIDATLAAARAEARAALARGEEAVIEIRVPRGTTVEDARRIAAGLREIAEEAAGLPSLTFVIDLERGVSQEVLDVLADGGEEIEERYPNVSVVIALEEE
B13: LC3A_147_424 (protein)
chain: YKVTVEAYFKVKKDGKEALKAIEELAEELKKEGAKKVKIEKIEDKEDGTIYVKVTIESIKETKEEAQAFADKVIDRFEELEKKHKDTLKLVAISVSIEKA
B14: LC3A_132_237 (protein)
chain: AQAKLEAIKAQIDAQLAALRANLDDLAAVQAQIAAIEALLEQAKKELSPEDFLKLASDTSDKLDAIAEEAEAAGKAEVAALVNNLSMYADGLAIEAELKI
B15: LC3A_3_1624 (protein)
chain: MEEELKKTIEELKEAGWSEETLEKLKETVKLLKEKGYEEAAKTLLEEMRELKDAPSEILLDMLEEVKKVVETENLNEEELIKRIKEIARTARNESEIIEL
B16: LC3A_3_1541 (protein)
chain: LEEELEELLKELKEAGASEETLEAVRRAYEALLERGYEEAAKTFLEEMRELLDAPSELLLDFANEVLELVETSDLDEEELVKEIKEIARTIRNESEIIEL
B17: LC3A_28_1005 (protein)
chain: SELEKQIEEALAKAKEAAKKGEPVVITLKVGGDATEEDIEKLIEAMEEIAEILKDIKGSAIIVDLDSKLSQEHKDKIIDKGEEIEKKYPNITVIIALDED
B18: LC3A_28_896 (protein)
chain: MSALESAEEALKKVKEAVAAGDQEPLVLEVKAPSKEEDTEKLLELLEEIAKEASKLKGVTIVIDIDEDVSEENKNKIIDKAEELEEKYPNVTVIIALPES
B19: LC3A_28_1336 (protein)
chain: SIAEKIIEEAEKKIKEVAESGKPEVIEIEIPGSITEEEAKEIMDAILETAKKYKLPKGTAIIINVDADVSQEVLDVLAEGAERIEKEVPGVTVIIALDEE
B20: LC3A_17_579 (protein)
chain: SAEVEELYKKALEVLKKAAEFAAKHDEEAAKKLKELIKELEKAKETKDDKEILEKIAELMDEAAEILDELEHLDPEEATLLSMEAEGVAIEAESLLLKLE
B21: LC3A_28_759 (protein)
chain: MDVAAEVAAAIAAAKAAAAAGEEAVITITVPAGATQADVDTVIAGLETIAEITKDMESTSIVIDVEAGVSQENIDRLIDKGEEIEKKYPNVTVIFALDED
B22: LC3A_3_1735 (protein)
chain: MAARLAAARARLEALGFSPEVIAAALAVVKALLARGFEKAVEVLLAELEELKDLPDDILIAMLEDIKAYVETNDVTEEEVIAKIKEEARIARNEAEIEEL
B23: LC3A_free_46_2410 (protein)
chain: YVAEIDVDALAETKEKAEEFAKKIEEAAKEIAKEYGIEVEIEVKISKDEDGTYFVEIEITLEAETKETLEKAVNELIDKIEEIAEELGVSIIISYEISEA
B24: LC3A_free_46_2401 (protein)
chain: YKAEILIDALAESREKAEELAKRLKEAAEKIAKKYNAKVEIKVKIEELPDGSVFVEIEIIVEAEDKETIEKFVNDLIEEAEKIAEELGASLIISYEIEEL
B25: LC3A_3_1390 (protein)
chain: FEELKKEAEKILKSFGRSEEVIEATKKVLEELEKKGYLEAAKKFVEELKKMKDLSDEILLDFIEDVLNYIKENDWSEEEVVEFIKEEARTAINDHEIIEL
B26: LC3A_free_46_2341 (protein)
chain: GKLEVLVDILADTEEKAKKAVEALVKKFKELAKEYGAKLEIEVEISKLEDGSYYAEIKATFSGLTKEQAEAIENEIIDKVDEISEKYGVSAIVSTEFIET
B27: LC3A_3_1742 (protein)
chain: MEEKLAEIEKELKELGFSEETIEAALEVVKLLLERGFEEAVKKLLEELKKLKDVDDEILLAMLEDIKRKIETEDLNEEEVIEVIEEEARIARNESEIIEL
B28: LC3A_28_842 (protein)
chain: SKTEENIKKALAEAKEAAEKGESKVITLKVYKGDTEEEIDKIIETLEEIAEILKDLPNQAIIIEFEEPIDPEHQDKIIDKAEEIEKKYPNITVIIALPEE
B29: LC3A_132_273 (protein)
chain: GEEKAKELKKKIKELIEELKKNKDNLEKVKKLVKEIEKLLKEAEKELSPELVKKVAEYTAELADEVAEEYEAAGKKDQARLVTNLSMYADGIAIEAELKL

target: MAP1LC3A, Q9H492; experiment: median log2 fold change of GCK-ALFA target abundance (FLAG IP / Myc IP barcode read proportion) (log2 ratio); each designed protein is fused to an ALFA-tag nanobody in HEK293 cells to bring the named protein to FLAG-tagged glucokinase (GCK); Myc marks an untargeted standard; higher = target protein stabilised (more abundant); details: target protein: 3xFLAG-MCP-GCK-ALFA reporter; HEK293 landing pad (RPLP)
In short: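 HEK293 landing-pad cells received a recombined binder library fused to the ALFA nanobody and were induced with 2 μg mL^−1 doxycycline, then transfected with a plasmid encoding a FLAG-tagged target and a Myc-tagged standard. Lysates were collected after 48 h for anti-FLAG and anti-Myc immunoprecipitation, and the circular RNA barcodes were reverse transcribed, amplified and sequenced. Target abundance for each binder is the median log2 ratio of FLAG to Myc barcode read proportions. Barcodes had to reach a proportion of at least 10^−7 in both replicates, each binder needed at least 3 barcodes per replicate, a pseudocount of 10^−6 was applied, and the two replicates were pooled.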

Row | Binder | median log2 fold change
1 | B1 | 0.121
2 | B2 | -0.471
3 | B3 | 0.0275
4 | B4 | 0.205
5 | B5 | 0.0231
6 | B6 | 0.2
7 | B7 | -0.00293
8 | B8 | 0.226
9 | B9 | 0.245
10 | B10 | 0.0338
11 | B11 | 0.0565
12 | B12 | -0.011
13 | B13 | -0.463
14 | B14 | 0.233
15 | B15 | 0.327
16 | B16 | 0.0862
17 | B17 | -0.041
18 | B18 | -0.164
19 | B19 | -0.0655
20 | B20 | 0.0186
21 | B21 | -0.341
22 | B22 | 0.306
23 | B23 | 0.0318
24 | B24 | -0.0885
25 | B25 | 0.0169
26 | B26 | -0.272
27 | B27 | 0.321
28 | B28 | -0.297
29 | B29 | 0.243
